From ChEMBL document CHEMBL1961873, “Compounds: GSK PKIS; Assays: Nanosyn kinase panel” (2012)
For part of these data: Most of the strong results are listed elsewhere, so they are rarer here than in the full data. This is a selection; strong and weak results do not stand in their true shares.

How the values were obtained:
[1] = target: T1, Aurora kinase A (Homo sapiens) (UniProt O14965); conditions: at 1 µM;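 also: values are mean percent inhibition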
T1 sequence (whole entry): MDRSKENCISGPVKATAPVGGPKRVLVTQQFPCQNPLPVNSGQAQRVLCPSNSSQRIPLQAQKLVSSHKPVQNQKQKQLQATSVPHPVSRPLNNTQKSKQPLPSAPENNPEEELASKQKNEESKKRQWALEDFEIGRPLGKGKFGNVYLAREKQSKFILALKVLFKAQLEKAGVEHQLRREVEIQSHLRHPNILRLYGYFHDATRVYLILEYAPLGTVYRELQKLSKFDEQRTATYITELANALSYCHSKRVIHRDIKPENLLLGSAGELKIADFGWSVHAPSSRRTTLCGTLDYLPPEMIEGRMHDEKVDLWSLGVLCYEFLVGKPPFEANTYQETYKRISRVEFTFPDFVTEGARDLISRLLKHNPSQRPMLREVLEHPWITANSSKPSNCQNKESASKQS

[2] = target: Aurora kinase B (Homo sapiens) (UniProt Q96GD4); conditions: at 0.1 µM
[3] = target: Aurora kinase B (Homo sapiens) (UniProt Q96GD4); conditions: at 1 µM
[4] = target: T2, Aurora kinase C (Homo sapiens) (UniProt Q9UQB9); conditions: at 0.1 µM
T2 sequence (whole entry): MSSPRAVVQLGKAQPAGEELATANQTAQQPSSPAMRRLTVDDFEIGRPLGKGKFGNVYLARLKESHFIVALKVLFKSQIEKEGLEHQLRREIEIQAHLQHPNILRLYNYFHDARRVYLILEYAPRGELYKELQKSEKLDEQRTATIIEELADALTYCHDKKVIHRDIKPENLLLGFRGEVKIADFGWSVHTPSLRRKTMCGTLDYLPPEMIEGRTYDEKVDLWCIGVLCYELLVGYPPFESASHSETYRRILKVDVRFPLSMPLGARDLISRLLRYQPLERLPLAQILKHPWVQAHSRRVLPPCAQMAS

[5] = target: T2, Aurora kinase C (Homo sapiens); conditions: at 1 µM
[6] = target: Serine/threonine-protein kinase 10 (Homo sapiens) (UniProt O94804); conditions: at 0.1 µM
[7] = target: Serine/threonine-protein kinase 10 (Homo sapiens) (UniProt O94804); conditions: at 1 µM
[8] = target: T3, Mitogen-activated protein kinase kinase kinase kinase 2 (Homo sapiens) (UniProt Q12851); conditions: at 0.1 µM
T3 sequence (whole entry): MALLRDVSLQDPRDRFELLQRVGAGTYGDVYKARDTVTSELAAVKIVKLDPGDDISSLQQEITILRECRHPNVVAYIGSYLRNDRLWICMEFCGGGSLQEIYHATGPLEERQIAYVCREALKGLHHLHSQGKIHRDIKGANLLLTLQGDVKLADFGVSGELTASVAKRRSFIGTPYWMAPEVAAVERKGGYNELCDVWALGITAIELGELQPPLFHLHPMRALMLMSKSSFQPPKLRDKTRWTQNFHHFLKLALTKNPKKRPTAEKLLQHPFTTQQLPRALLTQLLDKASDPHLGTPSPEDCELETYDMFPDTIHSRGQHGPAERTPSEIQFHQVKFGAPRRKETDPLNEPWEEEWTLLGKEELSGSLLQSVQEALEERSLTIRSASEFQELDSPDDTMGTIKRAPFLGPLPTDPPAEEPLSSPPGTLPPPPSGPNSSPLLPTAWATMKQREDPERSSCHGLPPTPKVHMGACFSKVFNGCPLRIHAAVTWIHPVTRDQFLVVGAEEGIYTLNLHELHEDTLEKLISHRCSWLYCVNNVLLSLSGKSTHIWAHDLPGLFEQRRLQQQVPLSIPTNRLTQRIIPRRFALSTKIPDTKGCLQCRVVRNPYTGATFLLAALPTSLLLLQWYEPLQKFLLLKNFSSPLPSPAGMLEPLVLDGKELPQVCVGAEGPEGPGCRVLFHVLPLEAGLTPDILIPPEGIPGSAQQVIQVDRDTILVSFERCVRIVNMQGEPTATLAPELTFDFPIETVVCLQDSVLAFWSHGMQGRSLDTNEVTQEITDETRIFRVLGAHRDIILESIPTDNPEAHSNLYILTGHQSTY

[9] = target: T3, Mitogen-activated protein kinase kinase kinase kinase 2 (Homo sapiens); conditions: at 1 µM
[10] = target: Mitogen-activated protein kinase kinase kinase kinase 4 (Homo sapiens) (UniProt O95819); conditions: at 0.1 µM
Sequence of UniProt O95819 (O95819 whole entry, looked up): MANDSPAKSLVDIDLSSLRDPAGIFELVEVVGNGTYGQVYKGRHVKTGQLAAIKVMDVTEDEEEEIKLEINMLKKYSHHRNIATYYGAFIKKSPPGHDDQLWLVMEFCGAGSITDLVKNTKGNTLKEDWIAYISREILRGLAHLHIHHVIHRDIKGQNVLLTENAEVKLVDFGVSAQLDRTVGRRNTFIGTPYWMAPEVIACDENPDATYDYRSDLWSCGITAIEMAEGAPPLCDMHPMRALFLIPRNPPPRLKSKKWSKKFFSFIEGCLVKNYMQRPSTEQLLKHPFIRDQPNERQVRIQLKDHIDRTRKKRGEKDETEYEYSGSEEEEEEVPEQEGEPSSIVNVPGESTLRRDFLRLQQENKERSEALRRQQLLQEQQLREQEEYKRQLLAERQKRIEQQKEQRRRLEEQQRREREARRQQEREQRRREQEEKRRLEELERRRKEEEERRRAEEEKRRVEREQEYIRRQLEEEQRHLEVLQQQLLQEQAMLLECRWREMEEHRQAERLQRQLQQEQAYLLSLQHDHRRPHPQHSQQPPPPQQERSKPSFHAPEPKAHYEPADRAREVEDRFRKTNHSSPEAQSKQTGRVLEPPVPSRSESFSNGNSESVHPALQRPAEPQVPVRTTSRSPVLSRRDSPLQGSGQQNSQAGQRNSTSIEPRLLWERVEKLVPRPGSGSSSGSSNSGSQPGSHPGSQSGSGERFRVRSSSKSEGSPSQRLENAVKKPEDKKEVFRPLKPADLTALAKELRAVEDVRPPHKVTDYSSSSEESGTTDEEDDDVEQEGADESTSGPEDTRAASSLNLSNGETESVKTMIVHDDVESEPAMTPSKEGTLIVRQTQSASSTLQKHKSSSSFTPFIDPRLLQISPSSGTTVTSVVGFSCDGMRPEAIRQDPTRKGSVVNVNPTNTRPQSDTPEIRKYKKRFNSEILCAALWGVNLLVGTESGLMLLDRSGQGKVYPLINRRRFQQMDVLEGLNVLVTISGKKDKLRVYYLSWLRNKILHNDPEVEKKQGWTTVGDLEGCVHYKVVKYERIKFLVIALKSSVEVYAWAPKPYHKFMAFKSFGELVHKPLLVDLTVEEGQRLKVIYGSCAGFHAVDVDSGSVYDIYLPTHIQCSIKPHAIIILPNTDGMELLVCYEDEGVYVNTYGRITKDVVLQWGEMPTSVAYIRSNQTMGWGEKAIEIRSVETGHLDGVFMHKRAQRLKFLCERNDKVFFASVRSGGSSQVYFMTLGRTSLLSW

Sequence of UniProt O94804 (O94804 whole entry, looked up): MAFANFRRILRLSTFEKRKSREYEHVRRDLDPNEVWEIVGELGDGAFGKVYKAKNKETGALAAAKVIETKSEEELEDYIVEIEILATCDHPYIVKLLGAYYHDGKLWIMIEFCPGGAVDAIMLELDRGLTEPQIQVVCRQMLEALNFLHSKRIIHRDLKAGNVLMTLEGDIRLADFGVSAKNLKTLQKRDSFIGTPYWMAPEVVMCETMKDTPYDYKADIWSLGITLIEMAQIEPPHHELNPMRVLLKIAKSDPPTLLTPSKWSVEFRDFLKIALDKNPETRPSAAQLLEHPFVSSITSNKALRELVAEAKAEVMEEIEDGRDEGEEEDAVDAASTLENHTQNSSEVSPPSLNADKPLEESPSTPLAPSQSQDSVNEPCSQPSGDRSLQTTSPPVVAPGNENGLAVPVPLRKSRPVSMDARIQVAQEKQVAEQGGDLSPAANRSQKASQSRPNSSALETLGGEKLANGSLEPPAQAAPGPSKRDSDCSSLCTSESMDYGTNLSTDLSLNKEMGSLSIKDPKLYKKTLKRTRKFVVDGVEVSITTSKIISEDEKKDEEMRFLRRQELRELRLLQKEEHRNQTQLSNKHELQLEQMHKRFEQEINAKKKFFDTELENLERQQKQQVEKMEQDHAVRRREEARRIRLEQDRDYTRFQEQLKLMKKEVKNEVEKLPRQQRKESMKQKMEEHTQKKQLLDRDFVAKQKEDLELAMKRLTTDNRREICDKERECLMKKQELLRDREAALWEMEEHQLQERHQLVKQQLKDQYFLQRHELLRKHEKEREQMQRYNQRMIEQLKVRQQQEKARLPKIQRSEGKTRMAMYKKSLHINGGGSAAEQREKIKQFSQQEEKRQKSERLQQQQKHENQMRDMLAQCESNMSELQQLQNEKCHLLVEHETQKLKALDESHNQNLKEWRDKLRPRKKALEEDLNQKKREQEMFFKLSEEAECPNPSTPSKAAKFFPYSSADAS
Sequence of UniProt Q96GD4 (Q96GD4 whole entry): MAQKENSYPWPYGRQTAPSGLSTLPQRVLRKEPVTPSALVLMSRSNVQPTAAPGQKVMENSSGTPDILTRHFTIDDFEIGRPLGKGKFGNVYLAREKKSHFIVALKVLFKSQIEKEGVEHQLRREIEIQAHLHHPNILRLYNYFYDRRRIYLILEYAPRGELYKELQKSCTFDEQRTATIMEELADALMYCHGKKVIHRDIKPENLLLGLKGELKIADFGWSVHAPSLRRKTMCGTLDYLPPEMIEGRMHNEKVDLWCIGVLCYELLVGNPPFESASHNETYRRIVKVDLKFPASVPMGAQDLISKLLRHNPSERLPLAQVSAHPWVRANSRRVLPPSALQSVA

SMILES | inhibition [1] | inhibition [2] | inhibition [3] | inhibition [4] | inhibition [5] | inhibition [6] | inhibition [7] | inhibition [8] | inhibition [9] | inhibition [10]
COc1ccccc1C1=C(Nc2ccccc2)C(=O)NC1=O | 8.25% | 4.06% | 5.05% | 0.97% | -1.48% | 33.3% | 73.2% | 1.42% | 13.3% | 5.12%
O=C1NC(=O)C(c2ccccc2Cl)=C1Nc1cc(Cl)c(O)c(Cl)c1 | 11.8% | 4.77% | 9.34% | 4.54% | -3.03% | 4.78% | 19.1% | -0.01% | 2.7% | 2.37%
Fc1ccc(-c2ncn(C3CCNCC3)c2-c2ccnc(Oc3cccc(C(F)(F)F)c3)n2)cc1 | 5.75% | 4.03% | 5.56% | 0.56% | 3.96% | 9.92% | 11.9% | 2% | 4.65% | –
COc1ccccc1Oc1nccc(-c2c(-c3ccc(F)cc3)ncn2C2CCNCC2)n1 | 4.15% | 5.64% | 7.08% | 3.7% | 8.68% | 6.7% | 9.79% | 1.58% | 9.76% | 7.09%
O=C(O)c1ccc(Oc2nccc(-c3c(-c4ccc(F)cc4)ncn3C3CCNCC3)n2)cc1 | 3.12% | 2.6% | 4.72% | 0.74% | 2% | 6.8% | 8.19% | -1.44% | 1.57% | 3.08%
CC(C)(C)c1ccc(Oc2nccc(-c3c(-c4ccc(F)cc4)ncn3C3CCNCC3)n2)cc1 | 3.71% | 5.11% | 6.89% | -0.85% | 4.1% | 5.31% | 8.19% | 3.38% | 25.9% | 2.74%
Fc1ccc(-c2ncn(C3CCNCC3)c2-c2ccnc(Oc3cccc(F)c3)n2)cc1 | 4.59% | 4.46% | 4.6% | 2.13% | 1.42% | 8.49% | 9.09% | -0.26% | 3.59% | 4.5%
O=C1NC(=O)C(c2ccccc2)=C1Nc1ccccc1 | 10.8% | 1.6% | 3.65% | 1.24% | -1.21% | 7.59% | 32.4% | 2.02% | 7.67% | 10.1%
Cc1cccc(Oc2nccc(-c3c(-c4ccc(F)cc4)ncn3C3CCNCC3)n2)c1C | 1.24% | 3.65% | 2.08% | 0.24% | 3.19% | 5.07% | 6.96% | 2.15% | 6.26% | 5.29%
CS(=O)(=O)c1ccc(Oc2nccc(-c3c(-c4ccc(F)cc4)ncn3C3CCNCC3)n2)cc1 | 3.95% | 1.11% | 4.21% | -0.52% | 1.87% | 7.57% | 8.42% | 0.86% | 2.41% | 3.9%
NC(=O)CCc1ccccc1Oc1nccc(-c2c(-c3ccc(F)cc3)ncn2C2CCNCC2)n1 | -2.06% | -1.43% | 5.06% | -4.59% | -1.84% | 0.41% | 3.67% | 2.43% | 2.47% | 0.21%
O=C1NC(=O)C(c2cccc([N+](=O)[O-])c2)=C1Nc1cc(Cl)c(O)c(Cl)c1 | – | 2.21% | 3.34% | 1.93% | 6.2% | 3.53% | 13.6% | -6.79% | 5.47% | 2.66%
Fc1ccc(Oc2nccc(-c3c(-c4ccc(F)cc4)ncn3C3CCNCC3)n2)cc1 | -3.14% | -2.42% | -1.44% | -4.29% | -2.03% | 6.94% | 7.45% | -0.24% | 0.81% | 4.73%
Fc1ccc(-c2ncn(C3CCNCC3)c2-c2ccnc(Oc3ccc(Cl)cc3)n2)cc1 | 0.17% | 0.57% | 2.45% | -0.39% | -1.12% | 1.72% | 3.91% | 1.02% | 5.84% | 0.76%
